The other results are listed elsewhere or left out.
Assays:
HSkMC = human skeletal muscle cells; assay: cytotoxicity call (relative viability < 0.9); settings: 10 µM
HepG2 = assay: cytotoxicity call (relative viability < 0.9); settings: 10 µM
S. aureus RN4220 = assay: growth inhibition call (relative growth <= 0.2); settings: 50 µM

Compound | cytotoxicity call (HSkMC) | cytotoxicity call (HepG2) | growth inhibition call (S. aureus RN4220)
COc1ccc(S(=O)(=O)N(C)C[C@@H]2Oc3ccc(NC(=O)CCCN(C)C)cc3CC(=O)N([C@@H](C)CO)C[C@H]2C)cc1 | inactive | inactive | inactive
C[C@@H]1CCCCO[C@H](CN(C)Cc2ccc(Cl)c(Cl)c2)[C@@H](C)CN([C@H](C)CO)C(=O)c2cc(NS(=O)(=O)c3ccc(Cl)cc3)ccc2O1 | inactive | active | inactive
O=C(C[C@H]1CC[C@H]2[C@@H](COC[C@H](O)CN2S(=O)(=O)c2ccccc2)O1)NCc1ccc(-c2ccccc2)cc1 | inactive | inactive | inactive
C[C@H]1CN([C@@H](C)CO)C(=O)Cc2cc(NC(=O)NC3CCCCC3)ccc2O[C@@H]1CN(C)S(C)(=O)=O | inactive | inactive | inactive
Cc1cc(C(=O)Nc2cccc3c2O[C@H](CN(C)C(=O)NC(C)C)[C@H](C)CN([C@@H](C)CO)C3=O)n(C)n1 | inactive | inactive | inactive
C[C@@H]1CCCCO[C@@H](CN(C)C(=O)NC2CCCCC2)[C@@H](C)CN([C@H](C)CO)C(=O)c2cc(NC(=O)c3ccccc3)ccc2O1 | inactive | inactive | inactive
C[C@H](CO)N1C[C@H](C)[C@@H](CN(C)S(=O)(=O)c2cn(C)cn2)Oc2c(NS(=O)(=O)c3ccccc3)cccc2C1=O | inactive | inactive | inactive
Cc1ccc(S(=O)(=O)N(C)C[C@@H]2OCCCC[C@H](C)Oc3ccc(NC(=O)CCC(F)(F)F)cc3C(=O)N([C@@H](C)CO)C[C@@H]2C)cc1 | inactive | active | inactive
Cc1noc(C)c1NC(=O)N(C)C[C@@H]1Oc2c(NC(=O)c3ccc(-c4nccs4)cc3)cccc2C(=O)N([C@@H](C)CO)C[C@@H]1C | inactive | inactive | inactive
C[C@H](CO)N1C[C@H](C)[C@@H](CN(C)S(=O)(=O)c2cccs2)Oc2c(NS(=O)(=O)c3cccs3)cccc2C1=O | inactive | inactive | inactive
C[C@H]1CN([C@@H](C)CO)C(=O)Cc2cc(NC(=O)CCN3CCOCC3)ccc2O[C@@H]1CN(C)C(=O)Nc1ccc2c(c1)OCO2 | inactive | inactive | inactive
CC(C)CC#Cc1ccc2c(c1)O[C@H](CN(C)C(=O)Cc1cccnc1)[C@@H](C)CN([C@@H](C)CO)S2(=O)=O | inactive | inactive | inactive
COC(=O)/C=C/c1cn([C@H]2OC[C@@H](CO)[C@@H]2O)c(=O)[nH]c1=O | inactive | inactive | inactive
NCCCC(=O)O | inactive | inactive | inactive
CCCNC(=O)N1C[C@@H]2[C@H](c3ccccc31)[C@@H](CO)N2C(=O)CN1CCOCC1 | inactive | inactive | inactive
Cc1noc(C)c1S(=O)(=O)N(C)C[C@H]1Oc2c(NC(=O)C3CCOCC3)cccc2C(=O)N([C@@H](C)CO)C[C@H]1C | inactive | inactive | inactive
C[C@@H]1CN([C@H](C)CO)C(=O)c2cc(NC(=O)Nc3ccccc3)ccc2O[C@@H](C)CCCCO[C@H]1CN(C)C(=O)Cc1ccccc1 | inactive | inactive | inactive
C[C@@H]1CCCCO[C@@H](CN(C)S(=O)(=O)c2cn(C)cn2)[C@H](C)CN([C@@H](C)CO)C(=O)c2cc(NC(=O)Nc3ccc(C(F)(F)F)cc3)ccc2O1 | inactive | inactive | inactive
COc1ccc2c(c1)OCC(Cc1ccc(OC)c(OC)c1)C2=O (stereo not drawn) | inactive | active | inactive
CC[C@@H](C)N1C(=O)CC[C@H]1C(=O)O | inactive | inactive | inactive
C[C@@H]1CN([C@H](C)CO)S(=O)(=O)c2ccc(-c3cccnc3)cc2O[C@@H]1CN(C)C(=O)c1cccc(F)c1 | inactive | inactive | inactive
NCCn1cccn1 | inactive | inactive | inactive
COCCNC(=O)C[C@H]1C[C@@H]2c3cc(NC(=O)CN(C)C)ccc3O[C@@H]2[C@H](CO)O1 | inactive | inactive | inactive
Cc1ccc(S(=O)(=O)Nc2ccc3c(c2)CC(=O)N([C@H](C)CO)C[C@H](C)[C@@H](CN(C)Cc2ccc(C(F)(F)F)cc2)O3)cc1 | inactive | inactive | inactive
C[C@@H]1CN([C@H](C)CO)C(=O)c2cc(NC(=O)Nc3ccc(F)cc3)ccc2O[C@@H]1CN(C)Cc1ccc(C(=O)Nc2ccccc2N)cc1 | inactive | inactive | inactive
C[C@@H]1CN([C@@H](C)CO)S(=O)(=O)c2ccc(-c3cccnc3)cc2O[C@H]1CN(C)C(=O)NC1CCCC1 | inactive | inactive | inactive

From the antibiotic and cytotoxicity screens of Wong et al. (2023)
